Experimental findings from ChEMBL document CHEMBL4888484, “Replenishing the malaria drug discovery pipeline: Screening and hit evaluation of the MMV Hit Generation Library 1 (HGL1) against asexual blood stage Plasmodium falciparum ,using a nano luciferase reporter read-out” (2022) are described below.

The test system of this experiment is Plasmodium falciparum. Briefly: Primary screen in NF54 nanoGlo assay, in single point, at 2uM, 72h; a lower Z score goes with more inhibition. Type of experiment: functional, Erythrocyte. The conditions noted are these: timepoint 72 hour.

Screen size: about 150,000 compounds; about 540 (0.36%) showed an effect of 50% or more. The list shows a part of the results.

Turning to `CC1CN(CC(=O)NCC2CCCO2)c2ccc(F)cc2O1` (centres undefined), the “% Inhibition” value is given as -10% and the Z score worked out at 1.19.

Regarding `Cc1nsc2ncn(C[C@H](O)COCc3ccco3)c(=O)c12`, the “% Inhibition” value is listed as 38% and the Z score was -5.48.

Consider `CCCNC(=O)NC1CCC(Nc2nc(C3CCCCC3)nc3c2c(C)nn3-c2ccccc2)CC1` (centres undefined), for which the “% Inhibition” value came to 5% and the Z score was -0.77.

`COC(=O)[C@](C)(N)c1ccc(OC)cc1`: the “% Inhibition” value came out at 8% and the Z score is -0.78.

Turning to `C=CCC(=O)N1CC[C@@]2(CCCN(Cc3ccc(F)c(F)c3)C2=O)C1`, the “% Inhibition” value is given as -6% and the Z score amounted to 0.63.

On to `COc1cc(F)c([C@H](C)NC(=O)N(C)Cc2ccco2)cc1OC`, for which the “% Inhibition” value is reported as 44% and the Z score was -8.22.

As for `COc1cccc(C(=O)N(Cc2c(-c3ccccc3)noc2N2CCC(C)CC2)CC(C)C)c1`, the “% Inhibition” value was found to be 1% and the Z score is recorded as -0.2.

Regarding `CCC[C@@]1(C2CCN(C(=O)c3ccc(C)cc3)CC2)NC(=O)N(Cc2ccco2)C1=O`, the “% Inhibition” value was -26% and the Z score stood at 3.98.

For the compound `O=C(Nc1ccc(N2CCCC2=O)cc1)c1ccco1`, the “% Inhibition” value is given as -5% and the Z score is listed as 0.43.

For the compound `CCn1cccc(NC(=O)Cc2ccc(OCCOC)cc2)c1=O`, the “% Inhibition” value is -3% and the Z score worked out at 0.45.

Consider `CC(=O)[C@@H]1C[C@H](CC(=O)N2C3CCC2CC(c2ccnn2C)C3)C1(C)C` (some centres undefined), for which the “% Inhibition” value was -6% and the Z score was 1.15.

Take `N#Cc1cncc(N2CCC[C@H]2C2CCC2)n1`: the “% Inhibition” value is reported as 2% and the Z score is listed as -0.29.

Take `Cn1nncc1C(=O)N[C@H]1CCCc2c(F)cc(Cl)cc21`: the “% Inhibition” value is reported as -17% and the Z score amounted to 2.16.

On to `Cc1noc(C)c1S(=O)(=O)N[C@@H](C)C(=O)Nc1ccc(N2CCOCC2)nc1`, for which the “% Inhibition” value was 34% and the Z score is recorded as -3.76.

For `Cc1cccn(CC(=O)N(Cc2ccco2)c2ccc(F)cc2)c1=O`, the “% Inhibition” value was found to be 4% and the Z score was -0.44.

For `CC(C)N(C)C(=O)C(=O)Nc1cccc2nonc12`, the “% Inhibition” value is -12% and the Z score is reported as 1.59.

On to `Cc1[nH]nc(CCC(=O)NC(c2ccccc2)[C@H]2C[C@@H](O)C2)c1C` (some centres undefined), for which the “% Inhibition” value is recorded as -7% and the Z score is reported as 1.14.

For the compound `Cc1cc(C(=O)N2C3C=C(c4ccccc4)CC2CC3)no1` (centres undefined), the “% Inhibition” value is reported as -9% and the Z score is given as 0.84.

For the compound `CC(NCCc1cccs1)C(C)n1cccn1` (centres undefined), the “% Inhibition” value was -4% and the Z score turned out to be 0.43.

Turning to `CC1(C)C[C@@]1(NC(=O)Nc1ccnnc1)c1ccccc1`, the “% Inhibition” value amounted to 11% and the Z score is listed as -1.31.

With `COc1ccc([C@@H]2C=C(c3ccc(Cl)cc3)N=C3NN=NN32)cc1`, the “% Inhibition” value came out at 3% and the Z score was -0.35.

As for `Cc1cc(N2CC[C@@](O)(CN(C)C)C2)nc(C2CC2)n1`, the “% Inhibition” value was -10% and the Z score is listed as 1.9.

As to `CN(C)CCN(Cc1cccs1)C(=O)Nc1cc(Cl)ccc1N(C)C`, the “% Inhibition” value is listed as -5% and the Z score is 0.74.

Regarding `Clc1ccc(Cl)c(-c2ccc(CNCCOc3ccccn3)o2)c1`, the “% Inhibition” value was determined as 30% and the Z score is on record as -0.61.

Turning to `COC(=O)[C@H]1CCc2nnc(COc3ccc(C(C)(C)C)cc3)n2C1`, the “% Inhibition” value was -20% and the Z score is 3.74.

On to `Cc1ccc(CCNC(=O)[C@@H]2CC[C@H](NS(=O)(=O)N(C)C)C2)s1`, for which the “% Inhibition” value is listed as -3% and the Z score was determined as 0.5.

Take `CCc1c(C)sc2c1CCN(C(=O)Nc1ccc(C)cc1)[C@@H]2c1ccccc1`: the “% Inhibition” value is -16% and the Z score was 1.59.

Regarding `Cn1cc(C(=O)NC[C@](O)(c2ccoc2)c2ccco2)nn1`, the “% Inhibition” value is recorded as -16% and the Z score is reported as 2.81.

In the case of `CCOc1ccc2nnc(CNC(=O)N[C@@H](C)CC)n2n1`, the “% Inhibition” value is listed as -17% and the Z score worked out at 3.36.

In the case of `COc1ccc(Nc2nc(C)c3ncn(-c4ccc(OC)cc4)c3n2)cc1`, the “% Inhibition” value was -9% and the Z score is 1.45.

On to `COC(=O)[C@H](NCC(=O)N1CCCC1)c1ccccc1C`, for which the “% Inhibition” value was -12% and the Z score is recorded as 1.54.

Regarding `O=C(NCC#CCOc1ccc2c(c1)OCO2)c1cccc(-n2cnnn2)c1`, the “% Inhibition” value is -11% and the Z score amounted to 1.45.

On to `Cc1nsc(N[C@H]2CCc3ccccc32)n1`, for which the “% Inhibition” value is reported as -1% and the Z score came to 0.13.

`CC[C@H](C)CS(=O)(=O)NC1CCN(c2nccn(CC)c2=O)CC1`: the “% Inhibition” value was -23% and the Z score is recorded as 2.1.

For the compound `COCCn1cc(NC(=O)CC2CCN(CC(F)F)CC2)cn1`, the “% Inhibition” value is -9% and the Z score worked out at 1.68.

Regarding `CCn1cc(C(=O)NCC23CCCN2CCC3)c(C(C)C)n1`, the “% Inhibition” value was -22% and the Z score was found to be 2.39.

On to `CCn1cnnc1C1CCN(c2ncnc3cccc(C)c23)CC1`, for which the “% Inhibition” value was -3% and the Z score is recorded as 0.49.

As to `C[C@H](NC(=O)C1CCCC1)c1nnc2n1CCCCC2`, the “% Inhibition” value was -5% and the Z score stood at 0.72.

Regarding `CN1CCN(c2cc(N3C[C@@H]4[C@H]5CC[C@H](CC5)[C@@H]4C3)nc(N)n2)CC1`, the “% Inhibition” value was determined as 6% and the Z score is reported as -1.04.

For the compound `CCN(CC1CCOCC1)C(=O)Nc1ccc(C(=O)N2CCCC2)cc1C`, the “% Inhibition” value was -8% and the Z score is 1.05.

In the case of `C#C[C@@H](NC(=O)NCCCc1c(C)nn(C)c1C)C(C)C`, the “% Inhibition” value is 0% and the Z score came out at 0.04.

In the case of `O=C(NC[C@H]1CCCO1)N1CCN(c2cc3c(nn2)CCCC3)CC1`, the “% Inhibition” value is recorded as -20% and the Z score was 3.34.
